# According to PubChem BioAssay AID602310 (National Center for Advancing Translational Sciences (NCATS), 2012):
# The whole screen tested about 410,000 compounds, of which about 310 (0.076%) were called active. This list was built around the results that the source calls inconclusive (neither active nor inactive); the mix of calls is not that of the screen. The call rests on the fitted dose curve; in most records, active means well fitted curve in the direction sought with a large enough effect; inconclusive means small, poorly fitted or top-dose-only effect; inactive means flat fitted curve, though single readings scatter. A potency beside an inconclusive call is a rough fit, not a confirmed value.
# Biological target: DNA dC->dU-editing enzyme APOBEC-3G (Homo sapiens) (UniProt Q9HC16)
# Chain of UniProt Q9HC16 (Q9HC16 whole entry, looked up): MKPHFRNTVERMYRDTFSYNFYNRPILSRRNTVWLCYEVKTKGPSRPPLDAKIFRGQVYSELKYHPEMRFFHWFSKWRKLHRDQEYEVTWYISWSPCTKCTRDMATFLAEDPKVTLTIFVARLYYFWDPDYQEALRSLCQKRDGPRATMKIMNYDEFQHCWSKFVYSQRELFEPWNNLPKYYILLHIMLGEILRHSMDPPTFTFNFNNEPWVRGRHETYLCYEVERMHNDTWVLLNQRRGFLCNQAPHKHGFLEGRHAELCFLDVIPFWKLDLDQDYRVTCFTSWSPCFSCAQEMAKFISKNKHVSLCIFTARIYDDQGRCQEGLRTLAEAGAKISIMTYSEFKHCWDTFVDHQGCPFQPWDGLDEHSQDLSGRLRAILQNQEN
# Test: qHTS for Inhibitors of Vif-A3G Interactions: qHTS; further: nearly all actives have a fitted effect of over 60% in size
# Conditions: HeLa A3G-eYFP + Vif (tagged APOBEC3G with the HIV-1 protein that degrades it), YFP fluorescence, overnight; series mostly up to 46.1 µM
# From the text: The recent discovery and characterization of host restriction factors, which provide a potent defense to invading retroviruses, has provided new targets for antiviral drug development. APOBEC3G (A3G) and APOBEC3F (A3F) are potent cytidine deaminases that block HIV-1 replication; HIV-1 expresses the Vif protein, which counteracts A3G and A3F by binding to them and inducing their proteasomal degradation. The Vif-A3G and Vif-A3F interactions provide two potential targets for development of small molecules which can interfere with the ability of Vif to degrade A3G or A3F. […] To identify inhibitors that can interfere with Vif mediated degradation of A3G and A3F, we have developed Hela cell lines that stably express A3G or A3F tagged with eYFP at the C-terminal end (A3G-eYFP or A3F-eYFP, respectively) and Vif. In the absence of an inhibitor, Vif induces degradation of A3G-eYFP and A3F-eYFP, and the cells are not fluorescent. In the presence of an inhibitor, it is expected that Vif will be unable to degrade A3G-eYFP and/or A3F-eYFP, resulting in an increase in yellow fluorescence. In this assays Vif A3G was screened against the Molecular Library Small Molecule Repository (MLSMR). NIH Chemical Genomics Center [NCGC] NIH Molecular Libraries Probe Centers Network [MLPCN] MLPCN Grant: MH093245 Assay Submitter (PI): Vinay Pathak, National Cancer Institute
# 5 uL of 700 cells/well of A3G-YFP cells are dispensed into black, clear bottom plates. The plates are incubated overnight at 37 deg C. 23 nL of compounds are added by pintool. The plates are incubated overnight at 37 deg C and then read on the TTP Acumen (Ex 488/ Em 500-530).
# Potency means the concentration at half of the fitted maximal effect; tags describe the fitted curve by direction and shape.
row,Structure (SMILES),Potency
1,O=C1C=C(NCCc2cc(Br)c(O)c(Br)c2)C(=O)c2ncccc21,"inconclusive: 2.82 µM [inhibitor, full curve, poor fit]"
2,O=C(N/N=C/c1ccc([N+](=O)[O-])o1)c1cccc(S(=O)(=O)N2CCOCC2)c1,"inconclusive: 35.5 µM [inhibitor, single point]"
3,CCCC1=Nc2cc(C(=O)NCCCOCC)ccc2Sc2ccccc21,"inconclusive: 0.316 µM [inhibitor, full curve, poor fit]"
4,CCOC(=O)N1CCN(/[N+]([O-])=N/Oc2ccc([N+](=O)[O-])cc2[N+](=O)[O-])CC1C (stereo unspecified),inactive
5,COc1ccccc1CNS(=O)(=O)c1ccc(-c2cc(C)no2)cc1,"inconclusive: 1.41 µM [inhibitor, partial curve, poor fit]"
6,CC(NC(=O)/C(C#N)=C/c1ccc([N+](=O)[O-])o1)c1ccccc1 (stereo unspecified),active: 22.4 µM
7,O=S(=O)(NCCc1cn2ccsc2n1)c1ccc(Cl)cc1,inactive
8,Cc1noc(C)c1CSc1nc2ccccc2c(=O)n1-c1ccc(F)cc1F,"inconclusive: 2.51 µM [inhibitor, full curve, poor fit]"
9,CCOC(=O)c1c(NC(=O)c2ccccc2N(C)S(=O)(=O)c2ccccc2)sc2c1CCCC2,"inconclusive: 1.58 µM [inhibitor, full curve, poor fit]"
10,CCc1nnc(NC(=O)c2ccccc2NC(=O)C2CCN(C(=O)c3ccco3)CC2)s1,"inconclusive: 35.5 µM [inhibitor, single point]"
11,C=C1C(=O)O[C@H]2C1CC[C@@](C)(O)C13C=CC(C)(C21)C1(C3)C(=O)O[C@@H]2C3C(C)=CCC3[C@](C)(O)C[C@H](OC(C)=O)C21 (stereo partly specified),"inconclusive: 12.6 µM [inhibitor, partial curve, poor fit]"
12,CC(C)CN(CC(C)C)S(=O)(=O)c1ccc(C(=O)Nc2sc3c(c2C(N)=O)CCN(C(C)C)C3)cc1,"inconclusive: 17.8 µM [inhibitor, partial curve, poor fit]"
13,Cc1cc(C)c(S(=O)(=O)c2ccccc2C)c(Cl)n1,inactive
14,O=C1/C(=C\c2ccc3c(c2)OCO3)CCC/C1=C/c1ccc2c(c1)OCO2,"inconclusive: 31.6 µM [inhibitor, single point]"
15,C=CCNC(=O)c1onc(CSc2ccccc2C)c1C(=O)O,inactive
16,CC1=Nc2cc(C(=O)NC3CCCC3)ccc2Sc2ccc(Cl)cc21,"inconclusive: 0.794 µM [inhibitor, full curve, poor fit]"
17,COc1cc2c3nnc(-c4ccc(F)cc4)c-3cn(Cc3ccc(C)cc3)c2cc1OC,"inconclusive: 3.98 µM [inhibitor, full curve, poor fit]"
18,O=C(CCCCn1c(=O)c2ccccc2n(Cc2cccc(Cl)c2)c1=O)NCc1ccc2c(c1)OCO2,inactive
19,O=C(c1ccc(CS(=O)c2ccccc2Cl)o1)N1CCN(c2ccccn2)CC1 (stereo unspecified),"inconclusive: 2.24 µM [inhibitor, full curve]"
20,COc1ccc(N(CC(=O)Nc2cc(OC)ccc2OC)S(=O)(=O)c2c(C)noc2C)cc1,"inconclusive: 14.1 µM [inhibitor, single point]"
21,CN(C)S(=O)(=O)c1cccc(NC(=S)Nc2cc(Cl)cc(Cl)c2)c1,inactive

row,Structure (SMILES),Potency
1,Cc1ccc2c(c1)sc(-c1ccc(N(C)C)cc1)[n+]2C,"inconclusive: 22.4 µM [inhibitor, single point]"
2,O=C(Nc1ccc(Cl)cc1C(F)(F)F)C(Sc1nnc(-c2cccs2)o1)c1ccccc1 (stereo unspecified),"inconclusive: 1.78 µM [inhibitor, partial curve, poor fit]"
3,O=S(=O)(Nc1nc2ccccc2nc1Cl)c1ccc(Br)cc1,"inconclusive: 17.8 µM [inhibitor, single point]"
4,Cc1ccc(C(=O)N/C(=C/c2ccc(-c3ccc([N+](=O)[O-])cc3)o2)C(=O)NCCCN(C)C)cc1,"inconclusive: 15.8 µM [inhibitor, partial curve, poor fit]"
5,Cc1ccccc1NC(=S)NCc1ccc2c(c1)cc(C)n2C,"inconclusive: 12.6 µM [inhibitor, partial curve, poor fit]"
6,Cc1cc(=O)n2[nH]c(NC(=O)c3cccc(Cl)c3)nc2n1,inactive
7,CCc1ccc(C2c3c(-c4ccccc4)n[nH]c3C(=O)N2c2ccc(C(=O)O)cc2)cc1 (stereo unspecified),inactive
8,Cc1ccc(C(=O)N2CCN3C(=O)c4ccccc4C23c2ccc(Cl)cc2)cc1 (stereo unspecified),"inconclusive: 31.6 µM [inhibitor, single point]"
9,O=C(COc1ccc(Cl)cc1)NCc1ccc(F)cc1,inactive
10,Cc1ccc(C2/C(=C(\O)c3c(C)nc4ccccn34)C(=O)C(=O)N2CCN(C)C)o1 (stereo unspecified),inactive
11,Cc1ccc(S(=O)(=O)C(NC(=O)c2ccccc2)=C(Cl)Cl)cc1,"inconclusive: 8.91 µM [inhibitor, partial curve]"
12,Cc1ccc(/C=N/NC(=O)c2csc3c2CCCC3)cc1,"inconclusive: 35.5 µM [inhibitor, partial curve, poor fit]"
13,O=C(/C=C/c1ccco1)NC(=S)Nc1nc(-c2ccc3ccccc3c2)cs1,"inconclusive: 3.55 µM [inhibitor, full curve]"
14,Cc1ccc(S(=O)(=O)N/N=C\c2cc3c(cc2Br)OCO3)cc1,"inconclusive: 22.4 µM [inhibitor, single point]"
15,COc1cc(C(=O)N2CCCc3ccccc32)cc(OC)c1OC,inactive
16,COc1ccc(CNc2nc(N)nc3nc[nH]c23)cc1,inactive
17,O=C(Nc1nc2ccccc2s1)c1ccc([N+](=O)[O-])o1,"inconclusive: 15.8 µM [inhibitor, partial curve, poor fit]"
18,O=C(COc1ccc(C(=O)c2ccccc2)cc1)NCc1ccc(F)cc1,"inconclusive: 1.26 µM [inhibitor, full curve, poor fit]"
19,CCN(CC)CCNC(=O)c1ccc(-n2c(-c3ccccc3)cc3c2CCCC3)cc1,"inconclusive: 35.5 µM [inhibitor, single point]"
20,COc1ccc(C2(CNC(=O)CCC(=O)O)CCCC2)cc1,inactive
